Test results: patent EP0093620A1, “Fungicidal N-phenylcarbamates” (priority 1982, dated 1983)

Columns and labels:
[1] = system: mixed spore suspension of the drug-resistant and drug-sensitive strain of Sphaerotheca fuliginea; experiment: Preventive effect on powdery mildew of cucumber, mixed spore suspension, sole and combined use; settings: Podosphaera fuliginea, topical, 240 h, read-out: Prevention value
[2] = system: mixed spore suspension of the drug-resistant and drug-sensitive strain of Botrytis cinerea; experiment: Preventive effect on gray mold of tomato, mixed spore suspension, sole and combined use; settings: sole use

Which results are given for `c1coc(-c2nc3ccccc3[nH]2)c1` [D, 2-(2-Furyl)benz-imidazole]?
pest or weed control at 100 ppm [1]: 0%; pest or weed control at 500 ppm [1]: 36%

For `C=CC1(C)OC(=O)N(c2cc(Cl)cc(Cl)c2)C1=O` (stereo not shown) [K, 3-(3',5'-Dichloro-phenyl)-5-methyl-5-vinyloxazolidin-2,4-dione], which Prevention value ([2]; 20 ppm active ingredient) is on record?
Its Prevention value is 15%.

What about the Prevention value ([2]; 100 ppm active ingredient) of the same molecule?
The Prevention value was 42%.

With `CCCCNC(=O)n1c(NC(=O)OC)nc2ccccc21` [A, Methyl 1-(butyl-carbamoyl)benz-imidazol-2-yl-carbamate] as the molecule, how does the pest or weed control at 20 ppm [1] read?
Its pest or weed control at 20 ppm is 12%.

What about the pest or weed control at 100 ppm [1] of the same molecule?
The pest or weed control at 100 ppm was 45%.

Which pest or weed control at 20 ppm [1] does the source give for `CCOc1ccc(NC(=O)OC(C)C)cc1COC` [compound 77, isopropyl N-(3-methoxymethyl-4-ethoxyphenyl)carbamate] here?
The pest or weed control at 20 ppm was 0%.

And the pest or weed control at 100 ppm [1]?
The pest or weed control at 100 ppm was 42%.

What about the Prevention value ([2]; 20 ppm active ingredient) of the same molecule?
Its Prevention value is 0%.

And the Prevention value ([2]; 100 ppm active ingredient)?
Its Prevention value is 40%.

For `c1ccc2[nH]c(-c3cscn3)nc2c1` [B, 2-(4-Thiazolyl)benz-imidazole], which pest or weed control at 100 ppm [1] is on record?
Its pest or weed control at 100 ppm is 10%.

What about the pest or weed control at 500 ppm [1] of the same molecule?
The pest or weed control at 500 ppm was 42%.

Which Prevention value ([2]; 20 ppm active ingredient) does the source give for `CC12CC1(C)C(=O)N(c1cc(Cl)cc(Cl)c1)C2=O` (stereo not shown) [I, N-(3',5'-Dichloro-phenyl)-1,2-dimethyl-cyclopropane-1,2-di-carboximide] here?
Its Prevention value is 22%.

And the Prevention value ([2]; 100 ppm active ingredient)?
The Prevention value was 48%.

How did the pest or weed control at 20 ppm [1] turn out when `CCOC(=O)NC(=S)Nc1ccccc1NC(=S)NC(=O)OCC` [F, 1,2-Bis(3-ethoxy-carbonyl-2-thio-ureido)benzene] was run?
Its pest or weed control at 20 ppm is 8%.

What about the pest or weed control at 100 ppm [1] of the same molecule?
Its pest or weed control at 100 ppm is 43%.

With `CCOC(=O)C1(C)OC(=O)N(c2cc(Cl)cc(Cl)c2)C1=O` (racemic) [L, Ethyl (RS)-3-(3',5'-dichlorophenyl)-5-methyl-2,4-dioxo-oxazolidine-5-carboxylate] as the molecule, how does the Prevention value ([2]; 100 ppm active ingredient) read?
The Prevention value was 12%.

And the Prevention value ([2]; 500 ppm active ingredient)?
The Prevention value was 42%.

With `COC(=O)NC(=S)Nc1ccccc1NC(=S)NC(=O)OC` [E, 1,2-Bis(3-methoxy-carbonyl-2-thio-ureido)benzene] as the molecule, how does the pest or weed control at 20 ppm [1] read?
The pest or weed control at 20 ppm was 10%.

What about the pest or weed control at 100 ppm [1] of the same molecule?
Its pest or weed control at 100 ppm is 44%.

With `CCOc1ccc(NC(=O)OC(C)C)cc1CC` [Compound No. 50, isopropyl N-(3-ethyl-4-ethoxyphenyl)carbamate] as the molecule, how does the pest or weed control at 20 ppm [1] read?
The pest or weed control at 20 ppm was 0%.

And the pest or weed control at 100 ppm [1]?
The pest or weed control at 100 ppm was 44%.

And the Prevention value ([2]; 20 ppm active ingredient)?
The Prevention value was 0%.

And the Prevention value ([2]; 100 ppm active ingredient)?
Its Prevention value is 40%.

How did the Prevention value ([2]; 100 ppm active ingredient) turn out when `CC(C)NC(=O)N1CC(=O)N(c2cc(Cl)cc(Cl)c2)C1=O` [Compound J, 3-(3',5'-Dichloro-phenyl)-1-isopropyl-carbamoylimida-zolidin-2,4-dione] was run?
Its Prevention value is 18%.

What about the Prevention value ([2]; 500 ppm active ingredient) of the same molecule?
Its Prevention value is 46%.

Which pest or weed control at 20 ppm [1] does the source give for `COC(=O)Nc1nc2ccccc2[nH]1` [C, Methyl benzimidazol-2-ylcarbamate] here?
The pest or weed control at 20 ppm was 8%.

What about the pest or weed control at 100 ppm [1] of the same molecule?
The pest or weed control at 100 ppm was 42%.
